Results from PubChem BioAssay AID504333 (National Center for Advancing Translational Sciences (NCATS), 2011).
Screen size: about 360,000 compounds; about 16,000 (4.4%) were called active. This list was built around the results that the source calls inconclusive (neither active nor inactive); the mix of calls is not that of the screen. Calls come from the whole dose curve; as a rule, active = well fitted inhibition curve with a large enough effect; inconclusive = small, poorly fitted or top-dose-only effect; inactive = no such curve, though single readings can be large or run the other way. Where the call is inconclusive, the potency comes from a doubtful curve fit. Where a structure was tested more than once in an assay, its records may differ in their call.

target: Bromodomain adjacent to zinc finger domain protein 2B (Homo sapiens) (UniProt Q9UIF8); assay: qHTS Assay for Inhibitors of BAZ2B; conditions: AlphaScreen BAZ2B-H3K14Ac peptide displacement; activity change, negative = inhibition: at 114 µM (top of the series) unless noted; note: nearly all actives have a fitted effect of over 60% in size
Sequence of UniProt Q9UIF8 (Q9UIF8 whole entry, looked up, the tested form may be a part): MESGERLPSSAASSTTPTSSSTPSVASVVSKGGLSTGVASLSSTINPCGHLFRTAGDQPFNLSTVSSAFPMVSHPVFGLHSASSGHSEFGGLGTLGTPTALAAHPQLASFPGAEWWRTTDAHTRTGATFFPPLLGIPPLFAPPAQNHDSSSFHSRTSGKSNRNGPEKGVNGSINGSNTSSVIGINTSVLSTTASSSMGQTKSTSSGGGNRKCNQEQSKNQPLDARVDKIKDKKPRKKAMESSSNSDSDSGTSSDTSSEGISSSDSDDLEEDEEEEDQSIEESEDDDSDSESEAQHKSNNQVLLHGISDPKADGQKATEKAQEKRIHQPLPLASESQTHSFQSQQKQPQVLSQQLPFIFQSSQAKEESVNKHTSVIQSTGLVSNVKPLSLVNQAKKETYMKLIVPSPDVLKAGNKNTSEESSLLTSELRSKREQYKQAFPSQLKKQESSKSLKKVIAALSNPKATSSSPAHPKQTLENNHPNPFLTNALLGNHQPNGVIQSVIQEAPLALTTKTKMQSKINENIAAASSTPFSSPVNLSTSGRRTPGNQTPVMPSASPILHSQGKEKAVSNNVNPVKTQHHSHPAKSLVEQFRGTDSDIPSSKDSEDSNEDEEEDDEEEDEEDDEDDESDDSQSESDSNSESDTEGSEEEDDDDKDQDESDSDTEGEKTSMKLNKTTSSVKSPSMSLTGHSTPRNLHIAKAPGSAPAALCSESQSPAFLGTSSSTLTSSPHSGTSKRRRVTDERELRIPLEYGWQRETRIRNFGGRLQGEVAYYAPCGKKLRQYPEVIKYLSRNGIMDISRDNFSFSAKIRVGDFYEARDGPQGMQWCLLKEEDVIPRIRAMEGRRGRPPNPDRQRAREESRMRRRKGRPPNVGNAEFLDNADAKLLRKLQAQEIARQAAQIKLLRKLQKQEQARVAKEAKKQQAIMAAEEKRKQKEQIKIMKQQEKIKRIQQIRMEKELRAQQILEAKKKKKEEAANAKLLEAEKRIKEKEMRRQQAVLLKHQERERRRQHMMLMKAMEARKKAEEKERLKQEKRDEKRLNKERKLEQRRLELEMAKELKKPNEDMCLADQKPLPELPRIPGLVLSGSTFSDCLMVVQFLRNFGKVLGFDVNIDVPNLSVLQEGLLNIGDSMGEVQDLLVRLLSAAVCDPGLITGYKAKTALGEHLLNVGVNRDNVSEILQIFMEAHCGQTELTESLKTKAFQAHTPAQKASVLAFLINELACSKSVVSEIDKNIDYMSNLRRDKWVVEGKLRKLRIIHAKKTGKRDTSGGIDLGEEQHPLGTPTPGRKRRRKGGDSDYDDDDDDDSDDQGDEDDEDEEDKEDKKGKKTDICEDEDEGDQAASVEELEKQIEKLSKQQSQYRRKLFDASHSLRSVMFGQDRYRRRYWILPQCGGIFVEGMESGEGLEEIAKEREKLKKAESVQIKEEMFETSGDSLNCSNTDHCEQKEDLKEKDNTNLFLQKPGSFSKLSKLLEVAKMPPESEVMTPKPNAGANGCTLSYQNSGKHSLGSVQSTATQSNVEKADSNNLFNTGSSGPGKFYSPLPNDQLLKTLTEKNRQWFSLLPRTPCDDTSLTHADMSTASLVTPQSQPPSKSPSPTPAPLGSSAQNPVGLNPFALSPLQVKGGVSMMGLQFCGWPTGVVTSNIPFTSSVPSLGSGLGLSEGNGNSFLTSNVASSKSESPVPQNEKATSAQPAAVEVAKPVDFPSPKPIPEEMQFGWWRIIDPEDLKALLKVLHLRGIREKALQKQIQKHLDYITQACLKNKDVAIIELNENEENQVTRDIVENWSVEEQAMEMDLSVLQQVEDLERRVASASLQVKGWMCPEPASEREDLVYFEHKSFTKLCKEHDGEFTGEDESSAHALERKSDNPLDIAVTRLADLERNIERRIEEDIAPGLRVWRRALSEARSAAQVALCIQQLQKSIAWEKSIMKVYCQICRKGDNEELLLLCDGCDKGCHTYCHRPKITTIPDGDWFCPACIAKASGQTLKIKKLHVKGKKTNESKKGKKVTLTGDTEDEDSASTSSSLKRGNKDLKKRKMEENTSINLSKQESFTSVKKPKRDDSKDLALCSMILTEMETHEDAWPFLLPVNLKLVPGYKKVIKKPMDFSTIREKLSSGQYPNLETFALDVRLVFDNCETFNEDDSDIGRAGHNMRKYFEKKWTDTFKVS
Outline: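 BAZ2B 50 nM plus b-H3(5-23)K14Ac 50 nM, PBS pH 7.4/0.01% Tween-20, 30 min RT; compound added (max 110 uM), 30 min RT; streptavidin donor/Ni-chelate acceptor beads 10 ug/mL final, 20 min dark; AlphaScreen read.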
% is set by controls: 0 for no effect and ±100 for the full control effect; potency is the fitted concentration of half-maximal effect; tags give direction and shape of the fitted curve.

| SMILES | Potency | activity change, negative = inhibition |
| --- | --- | --- |
| Cc1cccnc1NC(=S)NCc1ccco1 | inconclusive: 56.2 µM [inhibitor, partial curve] |  |
| COCCCn1c(Cc2csc(Nc3ccccc3)n2)nnc1SCC(N)=O | active: 56.2 µM |  |
| CCOC(=O)/C=C1\CN(Cc2cc(OC)c(OC)c(OC)c2)S(=O)(=O)c2ccc(C(F)(F)F)cc21 | inconclusive: 89.1 µM [inhibitor, single point] |  |
| COc1cc2ccccc2cc1C(=O)NC(=S)Nc1cc(C(=O)O)ccc1C | inconclusive: 79.4 µM [inhibitor, partial curve] |  |
| CCOc1ccc2[nH]c3c(NCCc4ccc(OC)c(OC)c4)ncnc3c2c1 | inconclusive: 22.4 µM [inhibitor, full curve] |  |
| O=C(CC(C(=O)O)N1CCOCC1)Nc1ccc(Cl)cc1 (stereo unspecified) |  | inactive: 10.2% |
| CCOc1cccc2sc(N3CCN(C(=O)C(C)(C)C)CC3)nc12 |  | inactive: -0.78% |
| COC(=O)[C@@]1(Cc2ccc(OC)cc2)[C@H]2c3cc(C(=O)N(C)C)n(CCc4ccc(OC)c(Br)c4)c3C[C@H]2CN1C(=O)c1ccccc1 | inconclusive: 39.8 µM [inhibitor, partial curve] |  |
| Cc1ccc(C2=NCCn3c2c2ccc([N+](=O)[O-])cc2[n+]3[O-])cc1 | inconclusive: 89.1 µM [inhibitor, single point] |  |
| O=C(c1ccccc1)N1N=C(c2ccccc2)CC1c1ccccc1O (stereo unspecified) | inconclusive: 39.8 µM [inhibitor, partial curve] |  |
| COc1ccc(NCc2nnc(SCC(=O)c3ccc(OC)cc3)n2C)cc1 |  | inactive: -0.606% |
| O=C(c1cn(-c2ccccc2)nc1-c1cccc([N+](=O)[O-])c1)N1CCCCC1 | inconclusive: 70.8 µM [inhibitor, single point] |  |
| O=C(Nc1nnc(S(=O)(=O)N2CCCCCC2)s1)c1ccccc1F | active: 10 µM |  |
| Cc1ccc(C(C(=O)NC(C)(C)C)N(C(=O)CCC(=O)Nc2ccccn2)c2ccccc2F)cc1 (stereo unspecified) | inconclusive: 89.1 µM [inhibitor, single point] |  |
| Cn1cccc1/C=N/n1c(-c2ccc(C(C)(C)C)cc2)n[nH]c1=S | active: 44.7 µM |  |
| C=CCNCCOCCSc1ccc(Cl)cc1 | inconclusive: 89.1 µM [inhibitor, single point] |  |
| CCc1ccc(CNC(=O)C2CCN(c3nnc(C)c4c(C)n(-c5ccc(C)cc5)nc34)CC2)cc1 | inconclusive: 79.4 µM [inhibitor, single point] |  |
| CCc1cccc(Nc2c([N+](=O)[O-])cc(C(=O)N3CC(=O)Nc4ccccc43)cc2[N+](=O)[O-])c1 | active: 10 µM |  |
| O=C(N/N=C/c1ccc(-c2cccc([N+](=O)[O-])c2)o1)[C@H]1C[C@@H]1c1ccccc1 |  | inactive: -4.84% |
| CCOc1ccc(NC(=S)NNc2ccnc3cc(Cl)ccc23)cc1 | inconclusive: 31.6 µM [inhibitor, partial curve] |  |
| CN1CCN(C(=O)c2cc([N+](=O)[O-])cc([N+](=O)[O-])c2)CC1 | inconclusive: 100 µM [inhibitor, single point] |  |
| COc1cc(NC(=O)c2ccc3c(Cl)c4c(nc3c2)CCC4)cc(OC)c1OC |  | inactive: -2.99% |
| CCCC1=Nc2cc(C(=O)NCCN3CCOCC3)ccc2Sc2ccc(C)cc21 | inconclusive: 31.6 µM [inhibitor, partial curve] |  |
| CN(C)c1ccc(N/C=C/C(=O)c2ccc(F)cc2)cc1 | inconclusive: 44.7 µM [inhibitor, partial curve] |  |

| SMILES | Potency | activity change, negative = inhibition |
| --- | --- | --- |
| COc1ccc(C(=O)c2coc3c2C(=O)C(=O)c2ccccc2-3)cc1 | active: 25.1 µM |  |
| Cn1c(C(=O)OC(C(=O)NCc2ccco2)c2ccncc2)cc2sccc21 (stereo unspecified) | inconclusive: 89.1 µM [inhibitor, single point] |  |
| CCOc1ccccc1Nc1nc(-c2sc(C)nc2C)cs1 | inconclusive: 44.7 µM [inhibitor, partial curve] |  |
| CSc1ccc(S(=O)(=O)N2CCC(C(=O)Nc3ccc(C(N)=O)cc3)CC2)cc1 | inconclusive: 89.1 µM [inhibitor, single point] |  |
| CCN(CC)c1ccc(NC(=O)c2ccccn2)cc1S(=O)(=O)Nc1ccccc1OC | inconclusive: 89.1 µM [inhibitor, single point] |  |
| O=[N+]([O-])c1cc([N+](=O)[O-])c(Oc2c(F)ccc(F)c2F)cc1NN1CCCCC1 | inconclusive: 10 µM [inhibitor, full curve] |  |
| O=C(CCc1ccccc1Cl)Nc1ccc(S(=O)(=O)Nc2nccs2)cc1 | inconclusive: 89.1 µM [inhibitor, single point] |  |
| Cc1cccc(-n2nc3c(c2NC(=O)c2ccco2)CS(=O)C3)c1C (stereo unspecified) |  | inactive: -30.3% |
| COCC(C)n1c(C)cc(C(=O)COC(=O)c2n[nH]c3ccccc23)c1C (stereo unspecified) | inconclusive: 50.1 µM [inhibitor, partial curve] |  |
| CC1C(=O)N2CCCc3cc(S(=O)(=O)N(C)c4ccccc4)cc1c32 (stereo unspecified) | active: 56.2 µM |  |
| CN1CCN(C(=O)Cn2c(-c3cccs3)cc3ccccc32)CC1 |  | inactive: -3.66% |
| O=C(NC(=S)Nn1cnnc1)c1ccc(F)cc1Cl | inconclusive: 79.4 µM [inhibitor, partial curve] |  |
| CN(CC(=O)Nc1ccccc1Cl)C(=O)COC(=O)c1cc([N+](=O)[O-])ccc1N1CCOCC1 | inconclusive: 89.1 µM [inhibitor, single point] |  |
| Cc1cc(C)nc(NS(=O)(=O)c2cccs2)c1 |  | inactive: -3.65% |
| Cc1ccnc(NC(=O)CCCOc2cc(=O)n(C)c3ccccc23)c1 | inconclusive: 89.1 µM [inhibitor, single point] |  |
| COc1ccc(NC(=O)Cn2cc(C(=O)c3ccncc3)c(=O)c3cc(C)ccc32)cc1Cl | inconclusive: 50.1 µM [inhibitor, partial curve] |  |
| CC1(C)CC(=O)C2=C(C1)NC1=C(C(=O)c3ccccc31)C2c1cc([N+](=O)[O-])ccc1O (stereo unspecified) | inconclusive: 11.2 µM [inhibitor, full curve] |  |
| O=C(NCC1CCCO1)c1nc2c(nnn2Cc2ccc(F)cc2)c(=O)[nH]1 (stereo unspecified) |  | inactive: -17.2% |
| COCCn1c(SCC(=O)N2CCCC2)nnc1C(C)C |  | inactive: -3.47% |
| CC(NC(=O)C1CCN(C(=O)Nc2ccccc2)CC1)c1ccccc1 (stereo unspecified) |  | inactive: -7.96% |
| Cc1cc(C)c2nc(C(F)(F)F)c(C#N)c(N)c2c1 |  | inactive: 10.2% |
| c1ccc(Cc2noc(CN3CCCN(C4Cc5ccccc5C4)CC3)n2)cc1 | inconclusive: 89.1 µM [inhibitor, single point] |  |
| c1ccc(-c2cn(C[C@H]3CC[C@@H]([C@@H]4CC[C@H](Cn5cc(-c6ccccn6)nn5)O4)O3)nn2)nc1 | active: 0.708 µM |  |
| CCSc1ccc2nnc(-c3cccs3)n2n1 |  | inactive: -27.4% |

| SMILES | Potency | activity change, negative = inhibition |
| --- | --- | --- |
| O=C(NCCc1ccccc1)c1nn(-c2ccccc2Cl)nc1CO |  | inactive: -0.123% |
| O=C1CCCC/C1=C/Nc1ccc2c(c1)OCO2 | inconclusive: 79.4 µM [inhibitor, single point] |  |
| Fc1ccc(Nc2c(-c3ccccn3)nc3ccc(Cl)cn23)cc1 | inconclusive: 1 µM [inhibitor, full curve] |  |
| O=C(CC1Sc2ccccc2NC1=O)OCc1cc(=O)oc2cc(O)ccc12 (stereo unspecified) | inconclusive: 3.98 µM [inhibitor, full curve, poor fit] |  |
| COc1cc(NC(C)CCCN)c2ncccc2c1 (stereo unspecified) | active: 56.2 µM |  |
| COc1ccc(/C=N/NC(=O)CN2CCCCCCC2)c(C)c1C | active: 56.2 µM |  |
| CC(=O)Nc1cc(NC(C)=O)cc(C(=O)OC(C)C(=O)Nc2ccc(S(=O)(=O)N3CCCC3)cc2)c1 (stereo unspecified) | inconclusive: 89.1 µM [inhibitor, single point] |  |
| COc1ccc(-c2cc(C(=O)NCc3ccco3)c3ccccc3n2)c(OC)c1 | inconclusive: 79.4 µM [inhibitor, single point] |  |
| CCn1nnc2cc(C(=O)Nc3ccc(OC)cc3)ccc21 |  | inactive: -8.56% |
| CN1C(=O)C2(NCCc3c2[nH]c2ccccc32)c2ccccc21 (stereo unspecified) |  | inactive: -6.67% |
| Cc1ccnc(NC(c2ccsc2)c2ccc3ccc(C)nc3c2O)c1 (stereo unspecified) | inconclusive: 25.1 µM [inhibitor, full curve] |  |
| O=C(O)c1ccc2cccc(O)c2n1 | inconclusive: 10 µM [inhibitor, full curve] |  |
| COc1ccc(CC2=CC(=O)c3ccccc3C2=O)cc1 | active: 14.1 µM |  |
| O=c1[nH]c(=O)n([C@H]2C[C@H](O)[C@@H](CO)O2)cc1Br | inconclusive: 6.31 µM [inhibitor, single point] |  |
| COc1ccc(CN2CCN(c3ccccn3)CC2)c(OC)c1C | active: 50.1 µM |  |
| COc1cc(OC)c(C2CC(=O)N3CN(C)CSC3=C2C#N)cc1OC (stereo unspecified) |  | inactive: -36.2% |
| CC(=O)c1c(C)[nH]c(C(=O)CN2C(=O)NC(CCc3ccccc3)C2=O)c1C (stereo unspecified) | inconclusive: 79.4 µM [inhibitor, single point] |  |
| CN(C)c1ccc(/C=N/Nc2cccc(C(=O)O)c2)cc1 | inconclusive: 70.8 µM [inhibitor, single point] |  |
| CN1CCCN(C2C3CC4CC(C3)CC2C4)CC1 (stereo unspecified) | inconclusive: 56.2 µM [inhibitor, partial curve, poor fit] |  |
| Nc1nc[nH]c(=O)c1N=Cc1ccccc1 | inconclusive: 79.4 µM [inhibitor, single point] |  |
| Cc1ccc(-c2ccc(CCC(=O)O)n2-c2cccc(C)c2C)cc1 | active: 44.7 µM |  |
| COC(=O)C(Cc1csc2ccc(Cl)cc12)NC(=O)c1ccc(Cl)cc1 (stereo unspecified) |  | inactive: -23.8% |
| COc1ccc(C(=O)c2c(C)oc3cc([N+](=O)[O-])c(O)c([N+](=O)[O-])c23)cc1 | inconclusive: 50.1 µM [inhibitor, partial curve] |  |
